Experimental data as given in PubChem BioAssay AID485344 (National Center for Advancing Translational Sciences (NCATS), 2010).
The campaign covered roughly 340,000 compounds. About 6,900 (2%) were called active. Rule as the data show it: active = inhibition above about 30%; inactive = below that, where a call was filed. The list shows a part of the results, in another mix than the full data. The source gives no active or inactive call for entries shown without one.

These compounds were tested against D(2) dopamine receptor (Homo sapiens) (UniProt P14416) (assay: HTS Assay for Allosteric Antagonists of the Human D2 Dopamine Receptor: Primary Screen for Antagonists). Conditions: HEK293 TREx D2 cells, calcium flux, dopamine EC80; at 10 µM; stronger effect = higher value.
Summary of the method: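 In this primary screen, negative modulation is detected by tracking calcium flux after an EC80 dopamine challenge in inducible HEK293 T-REx D2 cells preexposed to test compound for 180 s.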
Also: 0% is about no effect.

Sequence of UniProt P14416 (P14416 whole entry, looked up): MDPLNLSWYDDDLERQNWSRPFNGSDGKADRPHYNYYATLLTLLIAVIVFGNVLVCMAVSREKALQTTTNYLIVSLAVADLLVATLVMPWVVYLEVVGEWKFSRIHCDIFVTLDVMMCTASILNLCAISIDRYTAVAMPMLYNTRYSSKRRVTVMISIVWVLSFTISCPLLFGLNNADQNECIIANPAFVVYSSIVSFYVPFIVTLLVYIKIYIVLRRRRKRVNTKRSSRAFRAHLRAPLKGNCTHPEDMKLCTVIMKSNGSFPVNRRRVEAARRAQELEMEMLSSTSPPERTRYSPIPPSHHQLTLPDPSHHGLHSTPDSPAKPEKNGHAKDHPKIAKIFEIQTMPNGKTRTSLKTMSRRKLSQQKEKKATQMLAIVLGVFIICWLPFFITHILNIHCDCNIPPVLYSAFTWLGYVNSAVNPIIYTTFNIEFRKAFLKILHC

Q: How did the inhibition turn out when `Cc1ccc(CCNC(=O)C(C)n2nc(C)c3c(C)n(-c4ccc(C)cc4)nc3c2=O)cc1` (stereo not given) was run?
A: Its inhibition is 7.07%.

Q: How did the inhibition turn out when `CCOC(=O)N1CCC(N2CCN(Cc3ccccc3)C(CCO)C2)CC1` (stereo not given) was run?
A: Its inhibition is active: 76.2%.

Q: Which inhibition does the source give for `CCc1ccc(C2CC(=O)c3c([nH]c(C(=O)OC4CCCCCC4)c3C)C2)cc1` (stereo not given) here?
A: Its inhibition is 20.5%.

Q: `Cc1c(C)n(C)c2ccc(C(=O)NCCCN3CCN(c4ccccc4F)CC3)cc12` was tested. Which inhibition did it give?
A: Its inhibition is active: 98.3%.

Q: For `O=C(CSc1nc(-c2ccco2)nc2cc(=O)[nH]n12)Nc1ccc(F)cc1`, which inhibition is on record?
A: Its inhibition is -6.69%.

Q: How did the inhibition turn out when `COc1ccc(Nc2cc(C(=O)NCCCN3CCOCC3)c3ccccc3n2)cc1OC` was run?
A: Its inhibition is active: 30.1%.

Q: How did the inhibition turn out when `CCN1CCN(Cc2nc3cc(NC(=O)c4cccc([N+](=O)[O-])c4)ccc3n2CC)CC1` was run?
A: The inhibition was -15.1%.

Q: How did the inhibition turn out when `COc1ccc(C2CC(=O)Nc3cc4c(cc32)OCO4)c(OC)c1` (stereo not given) was run?
A: The inhibition was 8.58%.

Q: `CCc1ccc(NC(=O)Cn2c(C(=O)OC)cc3oc(C)cc32)cc1` was tested. Which inhibition did it give?
A: Its inhibition is -9.13%.

Q: For `Cc1ccc(NC(=O)C(Cc2ccccc2)NS(=O)(=O)c2ccc3c(c2)oc(=O)n3C)cc1C` (stereo not given), which inhibition is on record?
A: Its inhibition is -25.6%.

Q: `CC(C)(C)C(=O)Cn1c(=O)n(CCCCCC(=O)NCc2ccccc2Cl)c(=O)c2sccc21` was tested. Which inhibition did it give?
A: The inhibition was 11.3%.

Q: For `CC(=O)c1ccc(N2CCN(C(=O)Nc3cn(CC(C)C)c(=O)c4ccccc34)CC2)cc1`, which inhibition is on record?
A: Its inhibition is 21.9%.

Q: For `CC1Sc2ccc(S(=O)(=O)N3CCC(C(=O)Nc4cccc(Cl)c4)CC3)cc2NC1=O` (stereo not given), which inhibition is on record?
A: Its inhibition is active: 69.5%.

Q: For `CCOC(=O)c1c(C)[nH]c(C)c1S(=O)(=O)NCC(=O)Nc1cc(Cl)ccc1OC`, which inhibition is on record?
A: The inhibition was -4.75%.

Q: `CSc1ccccc1NC(=O)Nc1cccc(Cl)c1` was tested. Which inhibition did it give?
A: Its inhibition is active: 36.2%.

Q: With `CC(=O)c1ccc(NC(=O)COc2ccccc2-c2nc(C(C)C)no2)cc1` as the compound, how does the inhibition read?
A: The inhibition was 10.2%.

Q: With `COc1ccc(C)cc1Nc1c2c(nc3ccccc13)CCC2` as the compound, how does the inhibition read?
A: The inhibition was -17.6%.

Q: For `O=C(COc1ccccc1)Nc1nnc2n1CCS2`, which inhibition is on record?
A: The inhibition was 13.4%.

Q: Which inhibition does the source give for `Cc1ccc(NC(=O)c2c(Nc3ccccc3C)sc(C(=O)c3ccccc3)c2N)cc1` here?
A: The inhibition was 9%.

Q: With `CCOC(=O)c1ccc(OCC2c3cc(OC)c(OC)cc3CCN2C(=O)Cc2ccc(F)cc2)cc1` (stereo not given) as the compound, how does the inhibition read?
A: The inhibition was -14.6%.

Q: With `CCc1nn(CC(=O)NC(C)C)c(=O)c2cc3cc(F)ccc3n12` as the compound, how does the inhibition read?
A: The inhibition was 2.9%.

Q: `CC(=O)N1CCCc2cc(S(=O)(=O)N(C)CC(=O)Nc3ccc(F)cc3Cl)ccc21` was tested. Which inhibition did it give?
A: Its inhibition is 1.44%.

Q: `CSc1ccc(/C=C/C(=O)OCC(=O)c2ccc[nH]2)cc1` was tested. Which inhibition did it give?
A: The inhibition was active: 50.4%.

Q: How did the inhibition turn out when `CN(C)c1nc(Oc2ccc(=O)[nH]n2)nc(N2CCCCC2)n1` was run?
A: The inhibition was active: 31.2%.

Q: How did the inhibition turn out when `CCOc1ccc(N(CC(=O)Nc2ccc(F)cc2F)S(=O)(=O)c2c(C)[nH]c(=O)[nH]c2=O)cc1` was run?
A: The inhibition was 1.9%.

Q: How did the inhibition turn out when `CN1C(=O)c2ccccc2Sc2ccc(NC(=O)Nc3ccccc3F)cc21` was run?
A: Its inhibition is 10.2%.

Q: `CCOCCCn1c(=N)c(S(=O)(=O)c2ccc(C)cc2)cc2c(=O)n3cccc(C)c3nc21` was tested. Which inhibition did it give?
A: The inhibition was 3.24%.

Q: Which inhibition does the source give for `COc1ccc(CN(CCC(c2ccc3c(c2)OCO3)c2ccccc2OC)C(C)=O)cc1` (stereo not given) here?
A: The inhibition was -7.01%.

Q: `Cc1cccc(C)c1Nc1c(-c2ccsc2)nc2ccccn12` was tested. Which inhibition did it give?
A: The inhibition was 2.5%.

Q: Which inhibition does the source give for `COc1ccc(CNC(=O)CCn2nc(C)c3c(C)n(-c4ccccc4)nc3c2=O)cc1OC` here?
A: The inhibition was -12.5%.

Q: With `O=C(CCN1CCN(c2ccccc2)CC1)NNC(=S)Nc1ccccc1` as the compound, how does the inhibition read?
A: The inhibition was active: 61.2%.

Q: `Cc1cccn2c(=O)c(/C=C(\C#N)c3nc4ccccc4n3C)c(Oc3ccc(Br)cc3)nc12` was tested. Which inhibition did it give?
A: Its inhibition is -21.4%.

Q: How did the inhibition turn out when `O=C(CN1CCN(c2ccc(Cl)cc2)CC1)Nc1ccc(F)cc1F` was run?
A: The inhibition was 3.33%.

Q: How did the inhibition turn out when `Cc1ccc(NC(=O)CCCn2nc(C)c3c(C)n(-c4ccccc4)nc3c2=O)cc1Cl` was run?
A: The inhibition was 2.91%.

Q: How did the inhibition turn out when `Cc1ccc(NC(=O)c2sc3ccccc3c2Cl)cc1` was run?
A: Its inhibition is 15%.

Q: How did the inhibition turn out when `Cc1ccc(CN2C(=O)c3ccccc3C2C(=O)NC2CCCCCC2)cc1` (stereo not given) was run?
A: The inhibition was -9.03%.

Q: For `O=C(Nc1cccc(C(=O)N2CCCCC2)c1)c1nsc2ccccc12`, which inhibition is on record?
A: The inhibition was -15.2%.

Q: With `CCc1ccc(-n2nc(C)c3c(C(=O)Nc4cccc(C(F)(F)F)c4)cc(C)nc32)cc1` as the compound, how does the inhibition read?
A: Its inhibition is -4%.

Q: `Cc1cc(O)c(C(c2ccc(F)cc2)N2CCCCC2)c(=O)n1Cc1ccco1` (stereo not given) was tested. Which inhibition did it give?
A: Its inhibition is -9.19%.

Q: For `Cc1cc(Nc2cccc(C(F)(F)F)c2)nc2ccc(NC(=O)c3ccc(N(C)C)cc3)cc12`, which inhibition is on record?
A: The inhibition was -5.11%.

Q: Which inhibition does the source give for `CCOc1ccccc1NC(=O)c1c(C)cc(C)nc1SCC(=O)c1cccc(OC)c1` here?
A: The inhibition was -4.86%.

Q: For `Cc1cccc(/C=C/c2onc(C)c2S(=O)(=O)N2CCC(C(=O)N3CCC(C)CC3)CC2)c1`, which inhibition is on record?
A: The inhibition was -16.8%.

Q: How did the inhibition turn out when `Cc1ccc(C(C)C)c(OCC(=O)Nc2c(C(=O)c3ccccc3)oc3ccccc23)c1` was run?
A: Its inhibition is 0.0481%.

Q: How did the inhibition turn out when `CCC(CC)C(=O)Nc1cccc(-c2nc3cccnc3s2)c1C` was run?
A: Its inhibition is 11.6%.

Q: With `COc1ccccc1-c1nc(S(=O)(=O)c2ccc(Cl)cc2)c(N2CCCCCC2)o1` as the compound, how does the inhibition read?
A: Its inhibition is -0.27%.

Q: How did the inhibition turn out when `CCOc1ccc(CNC(=O)C2CCCN(c3nc4c(C)cc(C)cc4s3)C2)cc1` (stereo not given) was run?
A: Its inhibition is 23.7%.

Q: Which inhibition does the source give for `COc1ccc(-n2nc3ccc(NC(=O)c4cc5ccccc5o4)cc3n2)cc1Cl` here?
A: Its inhibition is 6.87%.

Q: Which inhibition does the source give for `CCOc1cc(C2C(C(=O)OC)=C(C)NC3=C2C(=O)c2ccccc23)ccc1O` (stereo not given) here?
A: Its inhibition is 21.7%.

Q: How did the inhibition turn out when `O=C(Nc1ccc(N2CCC(N3CCCCC3)CC2)c(C(=O)O)c1)c1ccc(Br)cc1` was run?
A: Its inhibition is -23.6%.

Q: `CC1(C)O[C@H]2[C@@H](O1)[C@@H](C(=O)Nc1ccccc1O)O[C@@H]1OC(C)(C)O[C@@H]12` was tested. Which inhibition did it give?
A: Its inhibition is -4.13%.

Q: Which inhibition does the source give for `CCc1ccc(-c2nn(CC(=O)NC3CCCC3)c3c2cnc2ccc(C)cc23)cc1` here?
A: Its inhibition is 9.01%.

Q: `O=C(CN1C(=O)COc2ccc(S(=O)(=O)N3CCCCC3)cc21)NCc1ccc(F)cc1` was tested. Which inhibition did it give?
A: The inhibition was 19.1%.

Q: How did the inhibition turn out when `CCCOc1ccc(C(=O)Nc2cccc(-c3nc4ccccc4[nH]3)c2)cc1` was run?
A: The inhibition was 0.0377%.

Q: `Cc1ccc(-c2nc(C)c(CCNC(=O)C(=O)Nc3ccc4c(c3)OCCO4)s2)cc1` was tested. Which inhibition did it give?
A: The inhibition was 5.86%.

Q: How did the inhibition turn out when `Cc1ccc(NC(=O)Cn2c(=O)n(Cc3ccccc3)c(=O)c3c(C)c(C)sc32)c(C)c1` was run?
A: Its inhibition is -6.93%.

Q: For `COc1cc2c(cc1Cl)/C(=C\CCN(C)C)c1ccccc1S2`, which inhibition is on record?
A: Its inhibition is active: 36.5%.

Q: `Cc1cccc(C)c1OCC(=O)NCC1(N2CCOCC2)CCCCC1` was tested. Which inhibition did it give?
A: Its inhibition is 14.9%.

Q: For `CCc1ccccc1NC(=O)C1=CC(c2ccc(OC)c(OC)c2)=NS(=O)(=O)N1C`, which inhibition is on record?
A: The inhibition was 23.6%.

Q: With `CCOC(=O)c1ccc(-n2c(N)c(C(=O)OC)c3nc4ccccc4nc32)cc1` as the compound, how does the inhibition read?
A: The inhibition was 12.3%.

Q: `COc1ccc(OC(=O)c2nc(SCc3ccc(C)cc3)ncc2Cl)cc1` was tested. Which inhibition did it give?
A: The inhibition was -2.67%.
